Measured values published in paper PMC4336329 (PLoS ONE, 2015).
The whole screen tested about 310,000 compounds, of which about 14,000 (4.5%) showed an effect of 50% or more. The effect is printed as a negative number. The list shows a part of the results.

Target: human ether-à-go-go-related gene (hERG) potassium channel (human, UniProt Q12809)
Assay: primary screen, population patch clamp on CHO cells stably expressing hERG
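Note: peak tail current of the secondary pulse compared with the same well before compound.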

human ether-à-go-go-related gene (hERG) potassium channel, sequence (Q12809 whole entry, looked up): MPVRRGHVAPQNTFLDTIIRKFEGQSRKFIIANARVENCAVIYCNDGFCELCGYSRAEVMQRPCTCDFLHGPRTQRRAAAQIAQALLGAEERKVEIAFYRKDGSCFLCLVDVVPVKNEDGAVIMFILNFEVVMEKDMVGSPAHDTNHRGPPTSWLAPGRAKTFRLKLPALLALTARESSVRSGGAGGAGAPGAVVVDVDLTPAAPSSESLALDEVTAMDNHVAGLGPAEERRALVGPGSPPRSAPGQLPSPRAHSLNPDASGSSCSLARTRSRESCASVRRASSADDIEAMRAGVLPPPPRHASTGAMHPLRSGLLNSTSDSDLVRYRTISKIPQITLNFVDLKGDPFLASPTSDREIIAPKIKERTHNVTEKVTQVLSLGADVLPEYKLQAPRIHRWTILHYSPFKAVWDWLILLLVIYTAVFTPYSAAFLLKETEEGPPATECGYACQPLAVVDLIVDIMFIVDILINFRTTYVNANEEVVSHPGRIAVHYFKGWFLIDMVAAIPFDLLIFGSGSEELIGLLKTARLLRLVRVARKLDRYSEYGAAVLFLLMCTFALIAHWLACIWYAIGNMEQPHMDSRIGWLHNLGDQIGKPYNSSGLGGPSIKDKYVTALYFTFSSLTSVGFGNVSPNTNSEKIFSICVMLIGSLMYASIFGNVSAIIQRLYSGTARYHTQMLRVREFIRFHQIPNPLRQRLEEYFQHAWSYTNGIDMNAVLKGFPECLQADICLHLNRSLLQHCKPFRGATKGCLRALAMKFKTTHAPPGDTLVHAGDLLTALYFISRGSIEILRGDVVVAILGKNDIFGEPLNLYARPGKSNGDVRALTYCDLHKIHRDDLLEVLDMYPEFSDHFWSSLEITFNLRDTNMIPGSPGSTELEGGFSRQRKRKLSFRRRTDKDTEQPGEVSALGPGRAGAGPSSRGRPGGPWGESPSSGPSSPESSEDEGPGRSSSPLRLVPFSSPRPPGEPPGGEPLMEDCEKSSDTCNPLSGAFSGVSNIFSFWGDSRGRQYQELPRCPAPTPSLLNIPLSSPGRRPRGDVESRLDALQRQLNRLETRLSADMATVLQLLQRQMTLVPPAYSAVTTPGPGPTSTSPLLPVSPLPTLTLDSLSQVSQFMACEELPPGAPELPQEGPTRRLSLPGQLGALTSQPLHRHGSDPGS

In order of falling “hERG current change (%, negative = inhibition) at 10uM” value:
1. Cc1cc(C)n(-c2cccc(Cl)c2)c(=O)c1C#N  23.5%
2. Cc1cc(C)nc(Oc2ccc([N+](=O)[O-])cc2)n1  22.6%
3. COc1ccc(OC)c(-c2csc(N3CCC(c4ccccc4)CC3)n2)c1  19.4%
4. CCOC(=O)c1sc(=S)n(-c2ccc(C)cc2)c1N  17.8%
5. COCCN(C(=O)CSCC(=O)Nc1ccc(C)cc1)c1c(N)n(CC(C)C)c(=O)[nH]c1=O  17.6%
6. O=C1c2ccccc2S(=O)(=O)c2cc(C(=O)N(c3ccccn3)c3ccccn3)ccc21  16.3%
7. Cc1nc2ccccc2c(=O)n1/N=C/c1c(O)ccc2oc3c(c12)CCCC3  15.5%
8. O=C(O)c1sc2cc(C(F)(F)F)cnc2c1-c1ccccn1  13.2%
9. O=C(Nc1ccc2nc3n(c(=O)c2c1)CCCC3)c1cccnc1Cl  12.6%
10. O=C(NCc1ccco1)c1ccc(Cl)nc1  12.4%
11. COc1ccc(S(=O)(=O)n2cnc3ccccc32)cc1OC  12.4%
12. CSc1ncc(CN2CCCC(C(=O)Nc3ccc(-c4ccco4)cc3)C2)cn1 (centres unmarked)  11.1%
13. N#C/C(=C(/O)COC(=O)c1ccc2c(c1)OCCO2)c1nc2ccccc2[nH]1  7.5%
14. CC(=O)c1ccc(N2CCN(C(=S)Nc3ccc(Cl)c(Cl)c3)CC2)cc1  6.83%
15. O=C(O)c1ccc(OS(=O)(=O)c2cccc(C(F)(F)F)c2)cc1  6.34%
16. O=C(Nc1nc(-c2cccs2)cs1)c1cccc(S(=O)(=O)N2CCCCC2)c1  6.17%
17. CCn1nc(CCC(=O)O)c2ccccc2c1=O  6.13%
18. CCOC(=O)c1ccc(N2N=C(C)/C(=C/C=C/c3ccco3)C2=O)cc1  5.01%
19. Br.O=C(O)c1cscn1  4.28%
20. CC12CCC(=O)C=C1CCC1C2CCC2(C)C1CCC2(O)C(=O)CO (centres unmarked)  3.96%
21. COC(=O)c1cn(N(C)c2ncc(C(F)(F)F)cc2Cl)c(=O)c2ccccc12  3.91%
22. Cc1ccnc(Nc2nc3ccccc3o2)n1  1.42%
23. Cc1cccc(NC(=O)CN2C(=O)NC(Cc3ccccc3)C2=O)c1 (centres unmarked)  0.714%
24. COc1ccc(S(=O)(=O)Nc2ccccc2C)cc1  0.614%
25. CN(C)Cc1c(-c2ccc(Cl)cc2)nc2ccccn12  0.0702%
26. O=S(=O)(c1ccccc1)N1N=C(c2cccs2)CC1c1ccc(F)cc1 (centres unmarked)  -1.4%
27. COc1ccc(C)cc1S(=O)(=O)N1CCN(S(=O)(=O)c2cc(C)ccc2OC)CC1  -1.43%
28. CCOCCCn1c(SCc2nc3ccccc3s2)nc2ccccc2c1=O  -2.07%
29. CCCn1c(N)c(C(=O)CSc2nnc(C3CC3)n2-c2ccccc2)c(=O)[nH]c1=O  -2.34%
30. O=C1c2[nH]nc(-c3ccccc3O)c2C(c2cccc(Cl)c2)N1Cc1ccco1 (centres unmarked)  -3.79%
31. CCOC(=O)C(C)Oc1cccc2c(=O)n(CC(=O)NCc3ccc(F)cc3)ccc12 (centres unmarked)  -4.43%
32. COCCn1c(=O)c2cc3c(=O)n(CCOC)c(=O)c3cc2c1=O  -4.83%
33. Cc1ccc(C(=O)OC(C)C(=O)c2cc(C)c(C)cc2C)o1 (centres unmarked)  -5.34%
34. COc1ccc(NC2(c3ccc(Cl)cc3)C(=O)c3ccccc3C2=O)cc1  -5.85%
35. C=CCn1c(Cc2cccs2)nnc1SCC(=O)c1ccc2ccccc2c1  -8.42%
36. O=C(Nc1ccccc1Cl)c1ccc(S(=O)(=O)NCC2CCCO2)cc1 (centres unmarked)  -8.48%
37. COc1ccc(OCC2NCCc3cc(OC)c(OC)cc32)cc1 (centres unmarked)  -8.93%
38. CCOc1ncccc1C(=O)NCc1cccc(OC)c1  -12.8%
39. COc1ccc(OCc2cc(C(=O)N3CCN(CC(=O)N(C)C)CC3)no2)c(Cl)c1  -13.4%
40. O=C(NCC1OCCc2ccccc21)c1cc(COc2c(F)cccc2F)on1 (centres unmarked)  -14.2%
41. Cc1cc(C(=O)NC2CCN(Cc3ccccc3)CC2)n[nH]1  -19.8%
42. Cc1nc2c(c(=O)[nH]1)C(c1ccc([N+](=O)[O-])cc1)c1c(c3ccccc3oc1=O)O2 (centres unmarked)  -20.4%
43. O=C(CCC1CCCCC1)Nc1c2c(nn1-c1ccc(F)cc1)CS(=O)(=O)C2  -36.9%
44. COc1ccc(CN2C(=O)CN(C3CCCCCC3)C(=O)C2c2ccc(OC)c(OC)c2)cc1 (centres unmarked)  -42.2%
